# Test results taken from the supplement of paper PMC12217912.
# This is one part of the list. Sequences were assembled here from the parent chain. Inactive controls read about 0.05.
# B1: TEV protease; numbered along this chain (parent)
# chain: MGESLFKGPRDYNPISSSICHLTNESDGHTTSLYGIGFGPFIITNKHLFRRNNGTLVVQSLHGVFKVKDTTTLQQHLVDGRDMIIIRMPKDFPPFPQKLKFREPQREERICLVTTNFQTKSMSSMVSDTSCTFPSGDGIFWKHWIQTKDGQCGSPLVSTRDGFIVGIHSASNFTNTNNYFTSVPKNFMELLTNQEAQQWVSGWRLNADSVLWGGHKVFMVKPEEPFQPVKEATQL
# Variants of: B1
# Assay: raw area under fraction-flipped curve 0-4 h after induction (AUC4h, not background-subtracted), DNA-recorder readout of cleavage of the substrate (dimensionless); higher = more cleavage of the substrate by the protease variant
# Conditions: temperature: 34 °C; time window: 0-4 h after rhamnose induction
# Description: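 In vivo DNA recorder in E. coli TOP10(DE3) ΔrhaA at 34 °C. Each TEVp single-site mutant (parent TEVp 0) is paired with a single-site variant of the 7-mer TEVs (canonical ENLYFQ|S). The substrate sits between flexible linkers in a Bxb1-sfGFP-TEVs-SsrA fusion, so cleavage stabilises Bxb1 and speeds flipping of a recombination array, read by NGS. The value is the raw area under the fraction-flipped curve over 0-4 h after rhamnose induction (AUC4h), with ≥20 reads per time point. It is not background-subtracted; inactive controls average about 0.047.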
# 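Also: Bxb1 expression induced with 0.2% (w/v) L-rhamnose at OD600 near 0.5, cultures sampled hourly, flipped fraction per protease–substrate barcode pair counted by paired-end Illumina sequencing.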
Variant,area with substrate ENLYFAS,area with substrate ENLYFDS,area with substrate ENLYFES,area with substrate ENLYFFS,area with substrate ENLYFHS,area with substrate ENLYFIS,area with substrate ENLYFKS,area with substrate ENLYFLS,area with substrate ENLYFMS,area with substrate ENLYFPS,area with substrate ENLYFRS,area with substrate ENLYFSS,area with substrate ENLYFVS,area with substrate ENLYFWS,area with substrate ENLYFYS,area with substrate ENLYFCS,area with substrate ENLYFNS,area with substrate ENLYFGS,area with substrate ENLYFTS
P155H,0.071,0.0412,0.0489,0.0562,0.0517,0.0458,0.0566,0.0532,0.0566,0.049,0.0549,0.0536,0.051,0.0483,0.0479,–,–,–,–
G166L,0.0286,–,–,0.0639,0.0406,0.04,–,–,–,–,0.0484,–,0.0618,–,–,–,–,–,–
G166I,0.0523,–,0.0498,0.0573,–,0.0553,0.0806,0.053,0.0528,0.0634,0.0683,0.0535,–,0.0429,0.0519,0.053,0.0565,–,–
Q146I,0.0539,–,–,–,–,0.0603,–,0.0651,0.0836,0.0567,–,0.0531,–,0.054,0.0587,–,0.0957,0.0531,–
D137Y,0.063,–,0.0639,–,0.0628,0.0538,–,0.05,0.0633,0.0697,–,–,0.0522,0.0509,0.0526,0.0464,0.0672,–,0.0496
F117R,0.0553,–,0.0512,0.065,–,0.049,–,–,0.0703,0.0331,–,–,–,–,–,–,–,–,0.0526
S124I,0.0654,–,0.065,0.0682,–,–,0.0563,0.0557,0.0636,0.0491,–,0.066,–,0.0617,0.0683,–,0.055,–,0.0701
S124T,0.0469,0.0898,–,0.0644,–,0.0624,0.0509,–,0.0671,0.0483,0.0609,–,0.0874,–,0.0438,0.0563,–,0.0615,–
H143D,0.0494,0.0416,0.0595,0.0606,0.0602,0.0594,0.0564,0.0515,0.0571,0.0573,0.0467,–,0.0634,–,0.0609,0.0435,–,–,–
V126E,0.0557,0.0622,0.0618,0.0567,–,0.035,–,–,0.0701,0.0445,0.0855,–,–,–,0.0789,–,0.0597,–,0.0669
S123G,0.0479,–,0.0631,0.071,0.0752,0.0537,0.059,0.0698,0.0719,0.0661,0.0437,0.0742,–,0.0619,0.0468,0.0575,0.0766,–,0.0645
S123E,0.0651,–,0.0647,–,0.0649,0.0519,0.071,–,0.0566,0.0688,0.0607,0.0622,0.0527,0.0579,–,0.0503,0.0659,0.0526,0.0605
I145Q,0.068,0.0457,0.0517,0.0553,0.0422,0.0541,0.0651,–,–,0.0589,0.049,0.0243,–,0.0377,0.0548,0.0481,0.0548,–,0.0539
T115F,0.0475,0.0582,–,0.0617,0.0566,0.052,0.0712,–,0.0692,0.0535,0.0891,0.0587,–,0.0451,0.063,0.0614,0.0808,–,0.068
T115E,0.0634,0.0479,–,0.0643,0.0702,0.0678,–,–,0.0413,0.0585,0.0671,0.0592,0.058,0.0541,–,0.0707,–,–,0.0569
T132Q,0.0543,–,0.058,0.0607,0.0436,0.0527,0.0495,0.075,0.0548,0.0533,–,0.0611,0.0515,0.0531,0.0375,–,–,0.0682,–
I164M,0.0519,–,0.0564,0.0664,0.0528,0.0536,0.0591,0.0559,0.0619,0.0316,0.069,–,–,0.0605,0.0678,0.0563,0.0578,0.0567,0.0384
I164N,0.0526,0.0458,0.0584,–,0.0494,0.0354,0.0523,0.0696,0.0482,0.0536,–,–,–,–,0.0511,0.0571,–,0.0242,0.0472
M125E,0.0485,–,0.0725,0.0555,0.081,0.0596,–,0.0612,–,0.0725,–,0.0827,–,0.0601,0.0575,0.0603,–,0.0488,–
M125R,0.086,0.0491,–,0.0703,0.0509,0.0458,0.0815,0.0946,0.0529,0.0619,0.0657,0.0609,0.0663,0.0558,0.057,0.0626,0.0652,–,0.0698
S135G,0.058,0.0202,0.0537,0.0659,0.0548,0.0439,–,–,–,0.062,0.047,0.0613,0.0566,0.0501,0.0508,0.0486,0.0515,–,0.0741
W141C,0.0594,0.0466,0.0695,0.0642,0.0453,0.0504,0.052,–,0.0627,0.0635,0.0477,–,0.0496,–,0.0682,0.0534,0.0511,–,0.0467
K142P,0.0575,–,0.0589,0.0636,0.0546,0.0629,0.0575,–,0.0655,0.0614,0.0547,0.0565,0.0721,0.0609,0.0605,0.0428,0.0493,0.0576,0.062
T147P,0.0531,–,0.0637,0.0906,0.0587,0.0587,–,0.0762,0.0557,0.0594,0.068,0.0672,0.0675,0.0592,0.0576,0.0565,0.0605,–,0.062
T147I,0.06,0.0374,0.052,0.0705,–,0.0534,0.043,–,0.0627,0.0505,0.0334,0,–,0.0562,0.0603,–,0.0579,–,0.0532
T147G,0.0641,–,0.0763,0.0686,–,0.0555,0.0534,–,0.0627,–,0.0673,–,–,–,–,–,0.0637,0.0656,0.0792
